Measurements from PMC8329197, “Compounds targeting OSBPL7 increase ABCA1-dependent cholesterol efflux preserving kidney function in two models of kidney disease” (Nature Communications, 2021).

Experiments:
OSBPL7 = test system: T1, OSBPL7; assay: Competition with ^3H-Cpd K UV cross-linking to FLAG-tagged OSBPL7 in HEK293 cells (immunoprecipitation, autoradiography); assay type: binding, human; set-up: OSBP7 percentage of inhibition / OSBP7 percentage of inhibition, average: concentration or dose not given beside the values
T1 construct: Plasmids expressing each as a full-length protein with a C-terminal FLAG tag were obtained; expressed in transfected cells; host or cells: HEK293
Method: Briefly, a plasmid expressing a candidate target of interest fused with a FLAG tag was transfected into HEK293 cells. After 24 h, tritiated compound K at a concentration capable of inducing ABCA1-mediated cholesterol efflux (1.0 μM) was added for 3 h, then the live cells were exposed to UV-light (ʎ = 336 nm) to query potential compound/target cross-linking in situ. Cell lysates were prepared, the expressed protein was then selectively immunoprecipitated using an anti-FLAG antibody coupled to sepharose beads, bound proteins were separated by SDS-PAGE, and two identical blots were prepared and probed by western blot and by autoradiography to detect protein expression and presence or absence of compound crosslinking, respectively. The flow chart of this screen is illustrated in Fig. 2. Figure 2d illustrates the ability of Cpd A and Cpd G to displace tritiated Cpd K from overexpressed and immunoprecipitated OSBPL7. Figure 3b illustrates the use of this assay to detect binding of tritiated Cpd K to overexpressed and immunoprecipitated variants of OSBPL7 containing point mutations in the predicted oxysterol binging pocket of OSBPL7. […]

Col4a3 KO mice = assay: Alport syndrome model: ACR, serum creatinine, BUN, body weight (also vs ramipril); details: Col4a3 KO; ramipril animals from a prior study
human THP1 macrophages = assay: apoAI-mediated (ABCA1) cholesterol efflux from cholesterol-loaded THP1 macrophages; assay type: cell-based
[1] = single experiments (3 per compound)

**Q.** What does the source list for `O=C(N[C@@H]1CCCC[C@H]1O)c1cnc(OCC(F)(F)F)c(-c2ccc(Cl)c(Cl)c2)c1` [Cpd G]?
**A.** OSBP7 percentage of inhibition, average (OSBPL7; average of 3): 78%; OSBP7 percentage of inhibition (OSBPL7; [1]): 79% and 67% and 88%; Effect on BUN and serum creatinine compared with ramipril (Col4a3 KO mice): not inferior to ramipril; ABCA1 percentage of induction, average (human THP1 macrophages; average of 3): 99%; ABCA1 percentage of induction (human THP1 macrophages; [1]): 88% and 96% and 114%

“And” between values parts separate entries of the source, which are not always exact repeats. Equal values may be shown once.
